Data: paper PMC9911399, “Two distinct binding modes provide the RNA-binding protein RbFox with extraordinary sequence specificity”
Numbering of substitutions follows the chain as printed; changes in the protein carry UniProt numbers. The list shows a part of the results.

T1: RBFOX1 RRM RbFoxmut (Fox-RRM*) (Homo sapiens, UniProt Q9NWB1 109-208, R118D;E147R;N151S;E152T)
T1 sequence: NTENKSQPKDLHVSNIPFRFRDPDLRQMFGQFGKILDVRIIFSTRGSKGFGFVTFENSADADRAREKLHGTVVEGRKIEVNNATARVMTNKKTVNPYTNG

B1: CCACGUC (DNA:RNA)
RNA: GGGAGACCGGAAUUCAGAUUGUCCCCACGUCUUAAAUCCCGUCGUAGCCACCA
DNA 1: CAATCTGAATTCCGGTCTCCC
DNA 2: TGGTGGCTACGACGGGATT
B2: CCAACUC (DNA:RNA)
RNA: B1 RNA with C28A, G29C
DNA 1: CAATCTGAATTCCGGTCTCCC
DNA 2: TGGTGGCTACGACGGGATT
B3: UCCUAGG (DNA:RNA)
RNA: B1 RNA with C25U, A27C, C28U, G29A, U30G, C31G
DNA 1: CAATCTGAATTCCGGTCTCCC
DNA 2: TGGTGGCTACGACGGGATT
B4: GUGAUCA (DNA:RNA)
RNA: GGGAGACCGGAAUUCAGAUUGUCCGUGAUCAUUAAAUCCCGUCGUAGCCACCA
DNA 1: CAATCTGAATTCCGGTCTCCC
DNA 2: TGGTGGCTACGACGGGATT
B5: UCAAGCU (DNA:RNA)
RNA: B1 RNA with C25U, C28A, U30C, C31U
DNA 1: CAATCTGAATTCCGGTCTCCC
DNA 2: TGGTGGCTACGACGGGATT
B6: AAUGAUG (DNA:RNA)
RNA: B1 RNA with C25A, C26A, A27U, C28G, G29A, C31G
DNA 1: CAATCTGAATTCCGGTCTCCC
DNA 2: TGGTGGCTACGACGGGATT
B7: ACAUAGA (DNA:RNA)
RNA: B1 RNA with C25A, C28U, G29A, U30G, C31A
DNA 1: CAATCTGAATTCCGGTCTCCC
DNA 2: TGGTGGCTACGACGGGATT
B8: GUCCAGG (DNA:RNA)
RNA: B4 RNA with G27C, A28C, U29A, C30G, A31G
DNA 1: CAATCTGAATTCCGGTCTCCC
DNA 2: TGGTGGCTACGACGGGATT
B9: AUCGUUC (DNA:RNA)
RNA: B1 RNA with C25A, C26U, A27C, C28G, G29U
DNA 1: CAATCTGAATTCCGGTCTCCC
DNA 2: TGGTGGCTACGACGGGATT
B10: ACGCGCG (DNA:RNA)
RNA: B1 RNA with C25A, A27G, U30C, C31G
DNA 1: CAATCTGAATTCCGGTCTCCC
DNA 2: TGGTGGCTACGACGGGATT
B11: UAUUCGG (DNA:RNA)
RNA: GGGAGACCGGAAUUCAGAUUGUCCUAUUCGGUUAAAUCCCGUCGUAGCCACCA
DNA 1: CAATCTGAATTCCGGTCTCCC
DNA 2: TGGTGGCTACGACGGGATT
B12: UCCGGGG (DNA:RNA)
RNA: B11 RNA with A26C, U27C, U28G, C29G
DNA 1: CAATCTGAATTCCGGTCTCCC
DNA 2: TGGTGGCTACGACGGGATT
B13: CGCUAUC (DNA:RNA)
RNA: B1 RNA with C26G, A27C, C28U, G29A
DNA 1: CAATCTGAATTCCGGTCTCCC
DNA 2: TGGTGGCTACGACGGGATT
B14: UGGUGUU (DNA:RNA)
RNA: B1 RNA with C25U, C26G, A27G, C28U, C31U
DNA 1: CAATCTGAATTCCGGTCTCCC
DNA 2: TGGTGGCTACGACGGGATT
B15: CGUCAAA (DNA:RNA)
RNA: B1 RNA with C26G, A27U, G29A, U30A, C31A
DNA 1: CAATCTGAATTCCGGTCTCCC
DNA 2: TGGTGGCTACGACGGGATT
B16: CUUAAUA (DNA:RNA)
RNA: B4 RNA with G25C, G27U, U29A, C30U
DNA 1: CAATCTGAATTCCGGTCTCCC
DNA 2: TGGTGGCTACGACGGGATT
B17: CGGCUGC (DNA:RNA)
RNA: B1 RNA with C26G, A27G, G29U, U30G
DNA 1: CAATCTGAATTCCGGTCTCCC
DNA 2: TGGTGGCTACGACGGGATT
B18: CCGCUAU (DNA:RNA)
RNA: B1 RNA with A27G, G29U, U30A, C31U
DNA 1: CAATCTGAATTCCGGTCTCCC
DNA 2: TGGTGGCTACGACGGGATT
B19: GAUAAAG (DNA:RNA)
RNA: B11 RNA with U25G, U28A, C29A, G30A
DNA 1: CAATCTGAATTCCGGTCTCCC
DNA 2: TGGTGGCTACGACGGGATT
B20: UUAGGGA (DNA:RNA)
RNA: B1 RNA with C25U, C26U, C28G, U30G, C31A
DNA 1: CAATCTGAATTCCGGTCTCCC
DNA 2: TGGTGGCTACGACGGGATT
B21: GUGUAAU (DNA:RNA)
RNA: B4 RNA with A28U, U29A, C30A, A31U
DNA 1: CAATCTGAATTCCGGTCTCCC
DNA 2: TGGTGGCTACGACGGGATT
B22: AUCGCGC (DNA:RNA)
RNA: B11 RNA with U25A, A26U, U27C, U28G, G31C
DNA 1: CAATCTGAATTCCGGTCTCCC
DNA 2: TGGTGGCTACGACGGGATT
B23: GCAGCAA (DNA:RNA)
RNA: B1 RNA with C25G, C28G, G29C, U30A, C31A
DNA 1: CAATCTGAATTCCGGTCTCCC
DNA 2: TGGTGGCTACGACGGGATT
B24: AUGCCAA (DNA:RNA)
RNA: B4 RNA with G25A, A28C, U29C, C30A
DNA 1: CAATCTGAATTCCGGTCTCCC
DNA 2: TGGTGGCTACGACGGGATT
B25: AAGAGCC (DNA:RNA)
RNA: B4 RNA with G25A, U26A, U29G, A31C
DNA 1: CAATCTGAATTCCGGTCTCCC
DNA 2: TGGTGGCTACGACGGGATT
B26: GGCAUAA (DNA:RNA)
RNA: B4 RNA with U26G, G27C, C30A
DNA 1: CAATCTGAATTCCGGTCTCCC
DNA 2: TGGTGGCTACGACGGGATT
B27: GUUAACC (DNA:RNA)
RNA: B4 RNA with G27U, U29A, A31C
DNA 1: CAATCTGAATTCCGGTCTCCC
DNA 2: TGGTGGCTACGACGGGATT
B28: CACCCCA (DNA:RNA)
RNA: B1 RNA with C26A, A27C, G29C, U30C, C31A
DNA 1: CAATCTGAATTCCGGTCTCCC
DNA 2: TGGTGGCTACGACGGGATT
B29: CUGGCCG (DNA:RNA)
RNA: B4 RNA with G25C, A28G, U29C, A31G
DNA 1: CAATCTGAATTCCGGTCTCCC
DNA 2: TGGTGGCTACGACGGGATT
B30: AGAUACC (DNA:RNA)
RNA: B1 RNA with C25A, C26G, C28U, G29A, U30C
DNA 1: CAATCTGAATTCCGGTCTCCC
DNA 2: TGGTGGCTACGACGGGATT
B31: AAUUGCG (DNA:RNA)
RNA: B11 RNA with U25A, C29G, G30C
DNA 1: CAATCTGAATTCCGGTCTCCC
DNA 2: TGGTGGCTACGACGGGATT

Target: T1, RBFOX1 RRM RbFoxmut (Fox-RRM*)
Experiment: EMSA; HiTS-Eq, 1 nM pool, 10 min; buffer printed only for the single-RNA assays: 10 mM Tris pH 7.5, 150 mM NaCl, 3.4 mM EDTA, 0.001% NP-40, 30 C
Details: tags: His6 N-terminal (pET28a); label: 5' 32P
Method in brief: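 A pool of RNA with 7 randomized nucleotides, 5′-radiolabelled and with DNA-annealed flanks, was equilibrated at 1 nM for 10 min in 50 µL with purified RbFox RRM, wild type or mutant, across increasing protein concentrations. Free RNA was separated by 8% native PAGE, excised, reverse-transcribed, barcoded by PCR and sequenced. Relative association constants were obtained from read-count changes of each RNA species versus the control reaction and normalised to the cognate motif.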

| Binder | binding signal |
| --- | --- |
| B1 | 0.0866 KA relative to UGCAUGU |
| B2 | 0.0638 KA relative to UGCAUGU |
| B3 | 0.0801 KA relative to UGCAUGU |
| B4 | 0.125 KA relative to UGCAUGU |
| B5 | 0.0692 KA relative to UGCAUGU |
| B6 | 0.0977 KA relative to UGCAUGU |
| B7 | 0.145 KA relative to UGCAUGU |
| B8 | 0.0991 KA relative to UGCAUGU |
| B9 | 0.0834 KA relative to UGCAUGU |
| B10 | 0.152 KA relative to UGCAUGU |
| B11 | 0.0755 KA relative to UGCAUGU |
| B12 | 0.049 KA relative to UGCAUGU |
| B13 | 0.0991 KA relative to UGCAUGU |
| B14 | 0.141 KA relative to UGCAUGU |
| B15 | 0.0871 KA relative to UGCAUGU |
| B16 | 0.144 KA relative to UGCAUGU |

| Binder | binding signal |
| --- | --- |
| B17 | 0.105 KA relative to UGCAUGU |
| B18 | 0.0947 KA relative to UGCAUGU |
| B19 | 0.0614 KA relative to UGCAUGU |
| B20 | 0.0529 KA relative to UGCAUGU |
| B21 | 0.129 KA relative to UGCAUGU |
| B22 | 0.146 KA relative to UGCAUGU |
| B23 | 0.0749 KA relative to UGCAUGU |
| B24 | 0.0996 KA relative to UGCAUGU |
| B25 | 0.135 KA relative to UGCAUGU |
| B26 | 0.117 KA relative to UGCAUGU |
| B27 | 0.0736 KA relative to UGCAUGU |
| B28 | 0.125 KA relative to UGCAUGU |
| B29 | 0.139 KA relative to UGCAUGU |
| B30 | 0.0936 KA relative to UGCAUGU |
| B31 | 0.127 KA relative to UGCAUGU |
